# The supplement of paper PMC8728848
# The list shows a part of the results.
# Experiments:
# Assay in all cases: glycan array binding signal (z-score within array); higher = stronger binding
# Conditions in all cases: glycan notation: IUPAC condensed, linker removed
# [1] = target: Fuc(a1-2)[Gal(a1-3)]Gal(b1-4)GlcNAc(b1-2)Man
# Method in brief: (§1)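 Arrays were curated from the Consortium for Functional Glycomics database, 3228 in total, and kept only where the protein sequence was available. Binding is expressed as a within-array Z-score. This score was averaged across arrays of the same protein sequence at different concentrations or buffers and across linkers, and negative values can be read as non-binding.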
# [2] = target: Fuc(a1-2)[Gal(a1-3)]Gal(b1-4)GlcNAc(b1-2)Man(a1-3)[Fuc(a1-2)[Gal(a1-3)]Gal(b1-4)GlcNAc(b1-2)Man(a1-6)]Man(b1-4)GlcNAc(b1-4)GlcNAc
# Method in brief: as §1
# [3] = target: Fuc(a1-2)[Gal(a1-3)]Gal(b1-4)GlcNAc(b1-2)Man(a1-3)[Fuc(a1-2)[Gal(a1-3)]Gal(b1-4)GlcNAc(b1-2)Man(a1-6)]Man(b1-4)GlcNAc(b1-4)[Fuc(a1-6)]GlcNAc
# Method in brief: as §1
# [4] = target: Fuc(a1-2)[Gal(a1-3)]Gal(b1-4)GlcNAc(b1-3)GalNAc
# Method in brief: as §1
# [5] = target: Fuc(a1-2)[Gal(a1-3)]Gal(b1-4)GlcNAc(b1-3)[Fuc(a1-2)[Gal(a1-3)]Gal(b1-4)GlcNAc(b1-6)]GalNAc
# Method in brief: as §1
# [6] = target: Fuc(a1-2)[Gal(a1-3)]Gal(b1-4)GlcNAc(b1-6)GalNAc
# Method in brief: as §1
# [7] = target: Fuc(a1-2)[Gal(a1-3)]Gal(b1-4)[Fuc(a1-3)]Glc
# Method in brief: as §1
# [8] = target: Fuc(a1-2)[Gal(a1-3)]Gal(b1-4)[Fuc(a1-3)]GlcNAc
# Method in brief: as §1
# [9] = target: Fuc(a1-2)[Gal(a1-3)]Gal(b1-4)[Fuc(a1-3)]GlcNAc(b1-3)GalNAc
# Method in brief: as §1
# [10] = target: Fuc(a1-2)[Gal(a1-4)]Gal(b1-4)GlcNAc
# Method in brief: as §1
# [11] = target: Fuc(a1-2)[GalNAc(a1-3)]Gal
# Method in brief: as §1
# [12] = target: Fuc(a1-2)[GalNAc(a1-3)]Gal(b1-3)GalNAc(a1-3)[Fuc(a1-2)]Gal(b1-4)GlcNAc
# Method in brief: as §1
# [13] = target: Fuc(a1-2)[GalNAc(a1-3)]Gal(b1-3)GalNAc(b1-3)Gal(a1-4)Gal(b1-4)Glc
# Method in brief: as §1
# [14] = target: Fuc(a1-2)[GalNAc(a1-3)]Gal(b1-3)GlcNAc
# Method in brief: as §1
# [15] = target: Fuc(a1-2)[GalNAc(a1-3)]Gal(b1-3)GlcNAc(b1-2)Man(a1-3)[Fuc(a1-2)[GalNAc(a1-3)]Gal(b1-3)GlcNAc(b1-2)Man(a1-6)]Man(b1-4)GlcNAc(b1-4)GlcNAc
# Method in brief: as §1
# [16] = target: Fuc(a1-2)[GalNAc(a1-3)]Gal(b1-3)GlcNAc(b1-2)Man(a1-3)[Fuc(a1-2)[GalNAc(a1-3)]Gal(b1-3)GlcNAc(b1-2)Man(a1-6)]Man(b1-4)GlcNAc(b1-4)[Fuc(a1-6)]GlcNAc
# Method in brief: as §1
# [17] = target: Fuc(a1-2)[GalNAc(a1-3)]Gal(b1-3)GlcNAc(b1-3)GalNAc
# Method in brief: as §1
# [18] = target: Fuc(a1-2)[GalNAc(a1-3)]Gal(b1-3)GlcNAc(b1-6)GalNAc
# Method in brief: as §1
# [19] = target: Fuc(a1-2)[GalNAc(a1-3)]Gal(b1-4)Glc
# Method in brief: as §1
# [20] = target: Fuc(a1-2)[GalNAc(a1-3)]Gal(b1-4)GlcNAc
# Method in brief: as §1
# [21] = target: Fuc(a1-2)[GalNAc(a1-3)]Gal(b1-4)GlcNAc(b1-2)Man
# Method in brief: as §1
# [22] = target: Fuc(a1-2)[GalNAc(a1-3)]Gal(b1-4)GlcNAc(b1-2)Man(a1-3)[Fuc(a1-2)[GalNAc(a1-3)]Gal(b1-4)GlcNAc(b1-2)Man(a1-6)]Man(b1-4)GlcNAc(b1-4)GlcNAc
# Method in brief: as §1
# [23] = target: Fuc(a1-2)[GalNAc(a1-3)]Gal(b1-4)GlcNAc(b1-2)Man(a1-3)[Fuc(a1-2)[GalNAc(a1-3)]Gal(b1-4)GlcNAc(b1-2)Man(a1-6)]Man(b1-4)GlcNAc(b1-4)[Fuc(a1-6)]GlcNAc
# Method in brief: as §1
# [24] = target: Fuc(a1-2)[GalNAc(a1-3)]Gal(b1-4)GlcNAc(b1-3)Gal(b1-4)GlcNAc
# Method in brief: as §1
# [25] = target: Fuc(a1-2)[GalNAc(a1-3)]Gal(b1-4)GlcNAc(b1-3)Gal(b1-4)GlcNAc(b1-3)Gal(b1-4)GlcNAc
# Method in brief: as §1
# [26] = target: Fuc(a1-2)[GalNAc(a1-3)]Gal(b1-4)GlcNAc(b1-3)GalNAc
# Method in brief: as §1
# [27] = target: Fuc(a1-2)[GalNAc(a1-3)]Gal(b1-4)GlcNAc(b1-3)[Fuc(a1-2)[GalNAc(a1-3)]Gal(b1-4)GlcNAc(b1-6)]GalNAc
# Method in brief: as §1
# [28] = target: Fuc(a1-2)[GalNAc(a1-3)]Gal(b1-4)GlcNAc(b1-6)GalNAc
# Method in brief: as §1
# [29] = target: Fuc(a1-2)[GalNAc(a1-3)]Gal(b1-4)[Fuc(a1-3)]GlcNAc
# Method in brief: as §1
# [30] = target: Fuc(a1-2)[GalNAc(a1-3)]Gal(b1-4)[Fuc(a1-3)]GlcNAc(b1-3)GalNAc
# Method in brief: as §1
# [31] = target: Fuc(a1-2)[GalNAc(a1-4)]Gal(b1-4)GlcNAc
# Method in brief: as §1
# [32] = target: Fuc(a1-2)[GalNAc(b1-3)]Gal
# Method in brief: as §1
# Fuc(a1-3)GlcNAc = target: Fuc(a1-3)GlcNAc
# Method in brief: as §1
# [33] = target: Fuc(a1-3)[Gal(b1-4)]Glc6S
# Method in brief: as §1
# [34] = target: Fuc(a1-3)[Gal(b1-4)]GlcNAc
# Method in brief: as §1
# [35] = target: Fuc(a1-3)[Gal(b1-4)]GlcNAc(b1-2)Man
# Method in brief: as §1
# [36] = target: Fuc(a1-3)[Gal(b1-4)]GlcNAc(b1-2)Man(a1-3)[Fuc(a1-3)[Gal(b1-4)]GlcNAc(b1-2)Man(a1-6)]Man(b1-4)GlcNAc(b1-4)GlcNAc
# Method in brief: as §1
# [37] = target: Fuc(a1-3)[Gal(b1-4)]GlcNAc(b1-2)Man(a1-3)[Fuc(a1-3)[Gal(b1-4)]GlcNAc(b1-2)Man(a1-6)]Man(b1-4)GlcNAc(b1-4)[Fuc(a1-6)]GlcNAc
# Method in brief: as §1
# [38] = target: Fuc(a1-3)[Gal(b1-4)]GlcNAc(b1-3)Gal(b1-3)[Fuc(a1-4)]GlcNAc
# Method in brief: as §1
# [39] = target: Fuc(a1-3)[Gal(b1-4)]GlcNAc(b1-3)Gal(b1-4)[Fuc(a1-3)]GlcNAc
# Method in brief: as §1
# [40] = target: Fuc(a1-3)[Gal(b1-4)]GlcNAc(b1-3)Gal(b1-4)[Fuc(a1-3)]GlcNAc(b1-3)Gal(b1-4)[Fuc(a1-3)]GlcNAc
# Method in brief: as §1
# [41] = target: Fuc(a1-3)[Gal(b1-4)]GlcNAc(b1-3)GalNAc
# Method in brief: as §1
# [42] = target: Fuc(a1-3)[Gal(b1-4)]GlcNAc(b1-4)Gal(b1-4)[Fuc(a1-3)]GlcNAc
# Method in brief: as §1
# [43] = target: Fuc(a1-3)[Gal(b1-4)]GlcNAc(b1-4)Gal(b1-4)[Fuc(a1-3)]GlcNAc(b1-4)Gal(b1-4)[Fuc(a1-3)]GlcNAc
# Method in brief: as §1
# [44] = target: Fuc(a1-3)[Gal(b1-4)]GlcNAc(b1-6)GalNAc
# Method in brief: as §1
binder,measurement,setting,value
Jacalin (Artocarpus integrifolia) (protein) MAYSSLLSLSVLALLFSISSADTRKWFLANGINQNPIGIIEAAVGVSEDLLNLNGMEAKNDEQSGISQTVIVGPWGAKVSTSSNGKAFDDGAFTGIREINLSYNKETAIGDFQVVYDLNGSPYVGQNHKSFITGFTPVKISLDFPSEYIMEVSGYTGNVSGYVVVRSLTFKTNKKTYGPYGVTSGTPFNLPIENGLIVGFKGSIGYWLDYFSMYLSL,glycan array binding signal (z-score),[1],-0.264
same,glycan array binding signal (z-score),[2],-0.225
same,glycan array binding signal (z-score),[3],-0.211
same,glycan array binding signal (z-score),[4],0.624
same,glycan array binding signal (z-score),[5],-0.332
same,glycan array binding signal (z-score),[6],-0.217
same,glycan array binding signal (z-score),[7],-0.262
same,glycan array binding signal (z-score),[8],-0.235
same,glycan array binding signal (z-score),[9],0.282
same,glycan array binding signal (z-score),[10],-0.293
same,glycan array binding signal (z-score),[11],-0.277
same,glycan array binding signal (z-score),[12],-0.267
same,glycan array binding signal (z-score),[13],-0.248
same,glycan array binding signal (z-score),[14],-0.279
same,glycan array binding signal (z-score),[15],-0.249
same,glycan array binding signal (z-score),[16],-0.235
same,glycan array binding signal (z-score),[17],0.29
same,glycan array binding signal (z-score),[18],-0.279
same,glycan array binding signal (z-score),[19],-0.276
same,glycan array binding signal (z-score),[20],-0.262
same,glycan array binding signal (z-score),[21],-0.29
same,glycan array binding signal (z-score),[22],-0.241
same,glycan array binding signal (z-score),[23],-0.234
same,glycan array binding signal (z-score),[24],-0.283
same,glycan array binding signal (z-score),[25],-0.174
same,glycan array binding signal (z-score),[26],0.427
same,glycan array binding signal (z-score),[27],-0.267
same,glycan array binding signal (z-score),[28],-0.28
same,glycan array binding signal (z-score),[29],-0.211
same,glycan array binding signal (z-score),[30],-0.197
same,glycan array binding signal (z-score),[31],-0.264
same,glycan array binding signal (z-score),[32],0.341
same,glycan array binding signal (z-score),Fuc(a1-3)GlcNAc,-0.279
same,glycan array binding signal (z-score),[33],-0.23
same,glycan array binding signal (z-score),[34],-0.263
same,glycan array binding signal (z-score),[35],-0.228
same,glycan array binding signal (z-score),[36],-0.259
same,glycan array binding signal (z-score),[37],-0.249
same,glycan array binding signal (z-score),[38],-0.245
same,glycan array binding signal (z-score),[39],-0.216
same,glycan array binding signal (z-score),[40],-0.272
same,glycan array binding signal (z-score),[41],0.527
same,glycan array binding signal (z-score),[42],-0.329
same,glycan array binding signal (z-score),[43],-0.325
same,glycan array binding signal (z-score),[44],-0.24
